Test results from the supplement of paper PMC7826260.
Some of the results follow. The data describe in vitro nicking of single-stranded DNA by Rep domains at 3 µM enzyme and 37 °C for 1 h; the strands have 90 letters, of which the middle is given. Uncut reads are compared with the no-enzyme pool on a log2 scale; the lower, the more was cut; hits are not called. Counts are relative to all reads, so uncut sequences can rise above 0 when many others are cut.

How the values were obtained:
Test in all cases: uncleaved DNA left, log2 of reads against the no-enzyme library (log2 ratio); higher = less cleavage (more negative = more Rep cleavage of the k-mer); sequences stand for … in CTCGTCCG…ACCGGAGA
[1] = tested on: T1, Rep nickase domain of Muscovy duck circovirus
T1 sequence (protein, residues 1-111, tag omitted): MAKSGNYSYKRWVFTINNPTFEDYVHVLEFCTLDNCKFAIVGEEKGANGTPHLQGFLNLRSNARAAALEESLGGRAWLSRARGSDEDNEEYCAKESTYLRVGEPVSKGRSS
Description: (§1)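 A pool of 90-nt single-stranded DNAs with seven random bases just before the constant AC of the nick site (name = the seven bases) was cut by 3 µM recombinant His6-SUMO-tagged Rep nickase domain (300 nM DNA, 50 mM HEPES pH 8.0, 50 mM NaCl, 1 mM MnCl2, 1 h, 37 °C, three replicates). Uncut DNA was amplified and sequenced.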

[2] = tested on: T2, Rep nickase domain of banana bunchy top virus
T2 sequence (protein, residues 1-94, tag omitted): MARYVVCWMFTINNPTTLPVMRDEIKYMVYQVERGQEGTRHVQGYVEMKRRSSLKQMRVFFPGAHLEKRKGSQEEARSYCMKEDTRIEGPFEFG
Description: as §1

[3] = tested on: T3, Rep nickase domain of cabbage leaf curl virus
T3 sequence (protein, residues 1-116, tag omitted): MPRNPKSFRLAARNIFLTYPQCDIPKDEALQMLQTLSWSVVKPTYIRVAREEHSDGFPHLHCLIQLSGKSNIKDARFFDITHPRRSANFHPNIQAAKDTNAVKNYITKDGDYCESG
Description: as §1

[4] = tested on: T4, Rep nickase domain of chickpea chlorotic dwarf virus
T4 sequence (protein, residues 1-124, tag omitted): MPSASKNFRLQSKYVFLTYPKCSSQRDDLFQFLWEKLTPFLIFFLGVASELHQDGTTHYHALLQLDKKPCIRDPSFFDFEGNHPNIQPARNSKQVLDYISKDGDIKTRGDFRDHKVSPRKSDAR
Description: as §1

[5] = tested on: T5, Rep nickase domain of faba bean necrotic yellows virus
T5 sequence (protein, residues 1-98, tag omitted): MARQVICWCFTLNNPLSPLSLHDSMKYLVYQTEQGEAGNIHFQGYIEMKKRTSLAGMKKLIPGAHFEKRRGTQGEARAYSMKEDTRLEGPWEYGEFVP
Description: as §1

[6] = tested on: T6, Rep nickase domain of maize striate mosaic virus
T6 sequence (protein, residues 1-117, tag omitted): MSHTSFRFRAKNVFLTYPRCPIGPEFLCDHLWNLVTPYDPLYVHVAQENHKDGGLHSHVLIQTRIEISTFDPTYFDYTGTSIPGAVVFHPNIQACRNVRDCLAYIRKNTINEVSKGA
Description: as §1

[7] = tested on: T7, Rep nickase domain of porcine circovirus 2
T7 sequence (protein, residues 2-116, tag omitted): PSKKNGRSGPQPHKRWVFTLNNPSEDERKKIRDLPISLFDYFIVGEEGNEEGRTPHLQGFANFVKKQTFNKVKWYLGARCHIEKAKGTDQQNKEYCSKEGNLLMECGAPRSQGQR
Description: as §1

[8] = tested on: T8, Rep nickase domain of tomato yellow leaf curl virus
T8 sequence (protein, residues 1-136, tag omitted): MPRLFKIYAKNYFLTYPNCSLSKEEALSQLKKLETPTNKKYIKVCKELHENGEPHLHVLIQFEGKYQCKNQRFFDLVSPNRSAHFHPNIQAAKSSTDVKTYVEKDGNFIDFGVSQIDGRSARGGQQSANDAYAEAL
Description: as §1

[9] = tested on: T9, Rep nickase domain of wheat dwarf virus
T9 sequence (protein, residues 1-137, tag omitted): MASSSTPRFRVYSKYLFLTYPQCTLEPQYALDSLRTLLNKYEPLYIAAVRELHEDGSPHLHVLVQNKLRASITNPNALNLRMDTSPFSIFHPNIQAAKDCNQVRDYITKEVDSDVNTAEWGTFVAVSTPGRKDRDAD
Description: as §1

Row | Sequence | uncleaved DNA left (log2) [1] | uncleaved DNA left (log2) [2] | uncleaved DNA left (log2) [3] | uncleaved DNA left (log2) [4] | uncleaved DNA left (log2) [5] | uncleaved DNA left (log2) [6] | uncleaved DNA left (log2) [7] | uncleaved DNA left (log2) [8] | uncleaved DNA left (log2) [9]
1 | GCTGAAT | 0.0183 | 0.0515 | 0.189 | 0.535 | 0.127 | 0.91 | 0.108 | 0.109 | 0.198
2 | GTAGTGT | 0.018 | 0.0116 | 0.241 | 0.717 | -0.0363 | 1.11 | -0.0567 | 0.0925 | 0.0753
3 | GTCATCT | -0.0672 | 0.0688 | 0.316 | 0.671 | -0.0327 | 1.62 | 0.0488 | 0.0609 | 0.152
4 | CAAACAA | -0.0255 | 0.129 | -0.0489 | -0.93 | 0.0433 | -0.673 | 0.0828 | 0.0257 | 0.0222
5 | CAGAAAG | 0.0911 | 0.0249 | -0.754 | -0.264 | 0.138 | -1.02 | 0.173 | 0.094 | 0.0158
6 | GCTCCTG | 0.0731 | 0.173 | 0.0634 | 0.287 | -0.0516 | 0.288 | 0.0825 | 0.0618 | 0.0994
7 | CTTATGG | 0.054 | 0.0566 | 0.0322 | 0.509 | -0.0102 | -0.407 | 0.178 | -0.0186 | 0.102
8 | TTGCCTG | -0.17 | -0.0362 | -0.287 | -0.517 | 0.0214 | -0.439 | -0.776 | -0.00672 | 0.0323
9 | ATACTAG | -0.0717 | 0.0054 | -0.771 | -0.798 | 0.0719 | -1.05 | 0.132 | -0.02 | -0.113
10 | TGCTAGC | 0.114 | 0.0512 | 0.253 | 0.528 | 0.0178 | 0.441 | 0.139 | 0.131 | -0.088
11 | CTGGGAC | -0.11 | 0.128 | 0.802 | 2.01 | 0.124 | 2.25 | 0.348 | 0.125 | 0.14
12 | CTGTGGC | 0.102 | -0.0697 | -0.163 | -0.476 | 0.0557 | -0.979 | 0.0946 | 0.0869 | 0.0216
13 | GACTATC | 0.242 | 0.0447 | 0.308 | 0.693 | 0.256 | 0.832 | -1.19 | 0.2 | 0.0949
14 | ACGGGAC | 0.0828 | -0.0149 | 0.8 | 1.71 | -0.147 | 1.94 | 0.191 | 0.128 | 0.0464
15 | ATACCGT | -0.0295 | -0.0537 | -0.429 | -0.873 | -0.096 | -0.878 | -0.0308 | -0.0756 | -0.219
